According to the supplement of paper PMC4967469:
IC50 is the fitted dose that halves viability relative to control wells, and lower means more sensitive; fits outside the tested doses are given as limits. AUC, from the same fit, is the share of area under the viability curve across the 256-fold dose range; the more sensitive the line, the further below 1.

Compound: NC1(c2ccc(-c3nc4ccn5c(=O)[nH]nc5c4cc3-c3ccccc3)cc2)CCC1 [MK-2206]
Assay: Viability of human cancer cell lines after 72 h of drug (GDSC screen)
Description: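 Human cancer cell lines in 384-well plates, medium with 10% serum, drug for 72 h over a 256-fold dose range (nine 2-fold or five 4-fold steps up to the top dose). Adherent lines were fixed and stained with the nucleic acid dye Syto60, suspension lines read with resazurin; signal relative to control wells, capped at 0 and 100%. One two-parameter sigmoid per drug and line, fitted in a mixed model over all curves with the slope shared within a line.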

Cell Line | AUC | IC50
MDA-MB-231 (breast, adherent, top dose 4 µM) | 0.983 | > 4 µM
H9 (lymphoid neoplasm, suspension, top dose 4 µM) | 0.991 | > 4 µM
HCC1395 (breast, adherent, top dose 4 µM) | 0.786 | 2.12 µM
SNU-449 (liver, adherent, top dose 4 µM) | 0.921 | > 4 µM
DOK (head and neck, adherent, top dose 4 µM) | 0.624 | 0.652 µM
KURAMOCHI (ovary, adherent, top dose 4 µM) | 0.714 | 1.12 µM
C-4-I (cervix, adherent, top dose 4 µM) | 0.832 | 2.85 µM
NKM-1 (acute myeloid leukaemia, suspension, top dose 4 µM) | 0.78 | 1.7 µM
D-502MG (glioma, adherent, top dose 4 µM) | 0.842 | > 4 µM
U-266 (myeloma, semi-adherent, top dose 4 µM) | 0.961 | > 4 µM
22RV1 (prostate, adherent, top dose 4 µM) | 0.88 | > 4 µM
HH (T-cell leukaemia, suspension, top dose 4 µM) | 0.497 | 0.245 µM
NCI-H1395 (lung adenocarcinoma, adherent, top dose 4 µM) | 0.786 | 2.38 µM
HC-1 (hairy cell leukaemia, suspension, top dose 4 µM) | 0.972 | > 4 µM
EN (endometrium, adherent, top dose 4 µM) | 0.82 | 3.14 µM
SUIT-2 (pancreas, adherent, top dose 2 µM) | 0.946 | > 2 µM
STS-0421 (soft tissue, adherent, top dose 4 µM) | 0.698 | 0.997 µM
RPMI-2650 (head and neck, adherent, top dose 4 µM) | 0.876 | > 4 µM
BHT-101 (thyroid, adherent, top dose 4 µM) | 0.609 | 0.504 µM
EoL-1-cell (haematopoietic neoplasm, suspension, top dose 4 µM) | 0.919 | > 4 µM
NCI-H1792 (lung adenocarcinoma, adherent, top dose 4 µM) | 0.978 | > 4 µM

Cell Line | AUC | IC50
SK-MEL-31 (melanoma, adherent, top dose 4 µM) | 0.871 | > 4 µM
HCC-15 (lung squamous cell carcinoma, adherent, top dose 4 µM) | 0.857 | > 4 µM
CAL-27 (head and neck, adherent, top dose 4 µM) | 0.96 | > 4 µM
NCI-H446 (small cell lung carcinoma, semi-adherent, top dose 4 µM) | 0.765 | 1.57 µM
NCI-H810 (large cell lung carcinoma, adherent, top dose 4 µM) | 0.988 | > 4 µM
CPC-N (small cell lung carcinoma, suspension, top dose 4 µM) | 0.911 | > 4 µM
H4 (glioma, adherent, top dose 4 µM) | 0.845 | 2.84 µM
ME-1 (acute myeloid leukaemia, suspension, top dose 4 µM) | 0.987 | > 4 µM
NALM-6 (B-cell leukaemia, suspension, top dose 4 µM) | 0.699 | 
RCC-AB (kidney, adherent, top dose 4 µM) | 0.781 | 2.21 µM
LXF-289 (lung adenocarcinoma, adherent, top dose 4 µM) | 0.655 | 0.666 µM
SW48 (large intestine, adherent, top dose 4 µM) | 0.937 | > 4 µM
VMRC-LCD (lung adenocarcinoma, adherent, top dose 4 µM) | 0.988 | > 4 µM
OCI-AML2 (acute myeloid leukaemia, suspension, top dose 4 µM) | 0.995 | > 4 µM
KGN (ovary, adherent, top dose 4 µM) | 0.936 | > 4 µM
BT-483 (breast, adherent, top dose 4 µM) | 0.936 | > 4 µM
NCI-H1869 (lung squamous cell carcinoma, adherent, top dose 4 µM) | 0.953 | > 4 µM
PCI-6A (head and neck, adherent, top dose 4 µM) | 0.857 | 3.16 µM
HA7-RCC (kidney, adherent, top dose 4 µM) | 0.756 | 1.5 µM
OVCA420 (ovary, adherent, top dose 4 µM) | 0.892 | > 4 µM
OE21 (oesophagus, adherent, top dose 4 µM) | 0.718 | 1.33 µM

Cell Line | AUC | IC50
RCM-1 (large intestine, adherent, top dose 4 µM) | 0.983 | > 4 µM
MZ2-MEL (melanoma, adherent, top dose 4 µM) | 0.664 | 0.779 µM
451Lu (melanoma, adherent, top dose 4 µM) | 0.988 | > 4 µM
TE-11 (oesophagus, adherent, top dose 4 µM) | 0.983 | > 4 µM
HCC1806 (breast, adherent, top dose 4 µM) | 0.93 | > 4 µM
NCI-H522 (lung adenocarcinoma, adherent, top dose 2 µM) | 0.966 | > 2 µM
ME-180 (cervix, adherent, top dose 4 µM) | 0.537 | 0.317 µM
HT-29 (large intestine, adherent, top dose 4 µM) | 0.944 | > 4 µM
MDA-MB-361 (breast, adherent, top dose 4 µM) | 0.633 | 
RS4-11 (leukaemia, suspension, top dose 4 µM) | 0.495 | 0.243 µM
NCI-SNU-1 (stomach, suspension, top dose 4 µM) | 0.988 | > 4 µM
CAL-54 (kidney, adherent, top dose 2 µM) | 0.769 | 0.865 µM
NCI-H2023 (lung adenocarcinoma, adherent, top dose 2 µM) | 0.848 | > 2 µM
MZ1-PC (pancreas, adherent, top dose 4 µM) | 0.955 | > 4 µM
KMH-2 (thyroid, adherent, top dose 4 µM) | 0.969 | > 4 µM
LB831-BLC (bladder, adherent, top dose 4 µM) | 0.958 | > 4 µM
JiyoyeP-2003 (Burkitt lymphoma, suspension, top dose 4 µM) | 0.983 | > 4 µM
NCI-H2110 (non-small cell lung carcinoma, adherent, top dose 4 µM) | 0.849 | 3.13 µM
MKN7 (stomach, adherent, top dose 4 µM) | 0.949 | > 4 µM
639-V (bladder, adherent, top dose 4 µM) | 0.871 | 2.84 µM
SH-4 (melanoma, adherent, top dose 4 µM) | 0.973 | > 4 µM

Cell Line | AUC | IC50
RPMI-8866 (chronic myeloid leukaemia, suspension, top dose 4 µM) | 0.837 | 2.41 µM
EHEB (lymphoid neoplasm, suspension, top dose 4 µM) | 0.706 | 1.26 µM
NCI-H2172 (non-small cell lung carcinoma, adherent, top dose 4 µM) | 0.934 | > 4 µM
NCI-SNU-5 (stomach, suspension, top dose 4 µM) | 0.824 | 2.43 µM
Hs746T (stomach, adherent, top dose 4 µM) | 0.849 | > 4 µM
Ca9-22 (head and neck, adherent, top dose 4 µM) | 0.981 | > 4 µM
SW1573 (lung adenocarcinoma, adherent, top dose 4 µM) | 0.915 | > 4 µM
LN-405 (glioma, adherent, top dose 4 µM) | 0.855 | > 4 µM
HD-MY-Z (Hodgkin lymphoma, adherent, top dose 4 µM) | 0.97 | > 4 µM
TUR (B-cell lymphoma, suspension, top dose 4 µM) | 0.512 | 0.269 µM
647-V (bladder, adherent, top dose 4 µM) | 0.945 | > 4 µM
KNS-62 (lung squamous cell carcinoma, adherent, top dose 4 µM) | 0.807 | 3.29 µM
COLO-680N (oesophagus, adherent, top dose 4 µM) | 0.967 | > 4 µM
COLO-800 (melanoma, adherent, top dose 4 µM) | 0.889 | > 4 µM
TE-9 (oesophagus, adherent, top dose 4 µM) | 0.985 | > 4 µM
LC-1-sq (lung squamous cell carcinoma, adherent, top dose 4 µM) | 0.919 | > 4 µM
MDA-MB-468 (breast, adherent, top dose 4 µM) | 0.866 | 3.34 µM
Detroit562 (head and neck, adherent, top dose 4 µM) | 0.94 | > 4 µM
SW954 (urogenital system, adherent, top dose 4 µM) | 0.858 | 3.34 µM
